This passage reports nonsense suppression results from the RNAGym collection of RNA variant scans (doi:10.1101/gad.245936.114).

Variants at the background level are over-represented here.

The chains are these.
B1: tRNA (parent)
chain: CUCUCGGUAGCCAAGUUGGUUUAAGGCGCAAGACUUUAAUUUAUCACUACGAAAUCUUGAGAUCGGGCGUUCGACUCGCCCCCGGGAGAUUUUUUCCUCGAGCAA

In the data set the parent is B1. Description: nonsense suppression (GFP-seq) (ratio to wild type); higher = more function; SUP4oc tRNA, yeast GFP reporter sort-seq. A digest of the protocol: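 Sorted GFP/RFP bins of yeast were each Illumina-sequenced with a phred ≥30 cutoff; the cells held a genome-integrated ochre-suppressor tRNA variant from a library with ~3% random mutations, a galactose-driven GFP ochre reporter, and RFP. Culture was in raffinose/galactose medium containing 80 mg/L adenine. Nonsense suppression, termed GFPSEQ, is the median GFP/RFP of the bins weighted by each variant's estimated cell share per bin, relative to the unmutated parent tRNA, for variants reaching ≥100 reads and ≥30 cells.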
Take CUCUCGGUAGCCAAAUUGGUUUACGGCGCAAGACUUUAAUUUAUCACUACGAAAUCUUGAGAUCGGGCGUUCGACUCGCCCCCGGGAGAUUUUUUCCUCGAGCAA [G15A A24C]: the nonsense suppression was 0.0467.
The result for CUCUCAGUAGCCAAGUUGAUUUAAGGAGCAAGACUUUAAUUUAUCACUACGAAAUCUUGAGAUCGGGCGUUCGACUCGCCCCCGGGAGAUUUUUUCCUCGAGCAA [G6A G19A C27A] reads ≤ 0.026; that for CUCUCGGUAGUCAAGUUGGUUUAAGGCGUAAGACUUUAAUUUAUCACUACGAAAUCAUGAGAUCGGGCGUUCGACUCGCCCCCGGGAGAUUUUUUCCUCGAGCAA [C11U C29U U57A], ≤ 0.026; that for CUCUCGGUAGUCAAGUUGGUUUAACGCGCAAGACUUUAAUUUAUCACUACGAAAUCUUGAGAUCGGGCGUUCGACUCGCCCCCGGGAGAUUUUUUCCUCGAGCAA [C11U G25C], ≤ 0.026.
As for CUCUCGGUAGCCAAGUUGGUUUAAGGCGCAAGACGUUAAUUUAUCACUACGAAAUCUUGAGAUCGGGCGUUCGACUCUCCCCCGGGAGAUUUUUUCCUCGAGCAA [U35G G78U], the nonsense suppression is ≤ 0.026.
The result for CUCUCGGUAGCCAAGUUGGUUUAAGGCGCAAGACUUUAAUUUAUCACUACGAAGUCUUGAGAUCGGGCUUUCGACUUGCCCCCGGGAGAUUUUUUCCUCGAGCAA [A54G G69U C77U] reads ≤ 0.026; that for CUCUCGGUAGCCAAGUUGGUAUAAUGAGCAAGACUUUAAUUUAUCACUACGAAAUCUUGAGAUCGGCCGUUCCACUCGCCCCCGGGAGAUUUUUUCCUCGAGCAA [U21A G25U C27A G67C G73C], ≤ 0.026.
The result for CUCUCGGUAGCCAAGUUGGUUUAAGCCGCAAGACUUUAAUUUAUCACUACGAAAUCUUGAGAUCGGGCGUUCGACUCGCCCCCGGAAGAUUUUUUCCUCGAGCAA [G26C G86A] reads ≤ 0.026; that for CUCUCGGUAACCAAGUUGGUUAAAUGCGCAAGACUUUAAUUUAUCACUACGAAAUAUUGAUAUCGGGCGUUCGACUCGCCCGCGGGAGAUUUUUUCCUCGAGCAA [G10A U22A G25U C56A G61U C82G], ≤ 0.026; that for UUCCCGGUAGCCAAGGUGGUUUAAGGCGCAAGACUUUAAUUUAUCACUACGAAAUCUUGAUAUCGGGCGUUCGACUCGCCCCCGGGAGAUUUUUUCCUCGAGCAA [C1U U4C U16G G61U], ≤ 0.026.
On to CUCUCGGUAGCCAAGUUGGUUUAAGGCGCAAGACUUUAAUUUAUCACUACGAAAUCUUGAGAACGGGCGUUCGGCUCGCCCCCGGGCGAUUUUUUCCUCGAGCAA [U63A A74G A87C], for which the nonsense suppression is ≤ 0.026.
The same measure for UUCUCGGGAGCCAAGUUGGUUUAAGGCGCAAGACUUUAAUUUAUCACUACGAAAUCUUGAGAUCCGGCGCUUGACUCGCCCCCGAGAGAUUUUUUCCUCGAGCAA [C1U U8G G65C U70C C72U G85A]: ≤ 0.026; for CUCACGGUAGCCAAGUUGAUUUAAGGCGCAAGACUUUAAUUUAUCACUACGAAAUCUUGAGAUCGGGCGUUCGACUCGCCCCCGGGAGAUUUUUUCCUCGAGCAA [U4A G19A]: ≤ 0.026.
Turning to CUCUCGGUAGCCAAGUUGGUUUAAGGCGCAAGACUUUAAUUUAUCACUACGAAAUCUUGAGAUCGGGCGUUCGACCCGACCCCGGGAGAUUUUUUCCUCGAGCAA [U76C C79A], the nonsense suppression is ≤ 0.026.
The result for CUGUCGGUAGCCAUGUUGGUUUAAGGCGCAGGACUUUAAUUUAUCACUACGAAAUCUUGAGAUCGGGCGUUCGACUCGCCCCCGGGAGAUUUUUUCCUCGAGCAA [C3G A14U A31G] reads ≤ 0.026; that for CUCUAGGUAGCCAAAUUGGUUUAAGGCGCAAGGCUUUAAUUUAUCACUACGAAAUCUUGAGAUCGGGCGUUCGACUCGCCCCCGGGAGAUUUUUUCCUCGAGCAA [C5A G15A A33G], ≤ 0.026.
The result for CUCUCGGUAGCCAAGUUGGUUUAAGGCGCAAGACUUUAAUUUAUCACUACGAAAUCUUGAGAUCGAGCGUUCGACUCGCCCCCCUGAGAUUUUUUCCUCGAGCAA [G66A G84C G85U] reads ≤ 0.026; that for CUCUCGGUAGCCAAGUUGGUUUAAGUCGCAAGACUUUAAUUUAUCACUACGAAAUCUUGAGAUCGGGCGUGCGACUCGCCCCCGGGAGAUUUUUUCCUCGAGCAA [G26U U71G], ≤ 0.026; that for CUCUCGGUAGGCAAGUUGGUUUAAGGCGCAAGACUUUAAUUUAUCACUACGAAAUCUUGAAAUCGGGCGUUCGACUCGCCCCCGGGCGAUUUUUUCCUCGAGCAA [C11G G61A A87C], ≤ 0.026.
As for CUCUCGGUAGCCAAGUUGGUUUAAUGCGCAAGACUUUAAUUUAUCACUACGAAAUCUUGAGAUCGGACGUUAGACUCGCCCCCGGGAGAUUUUUUCCUCGAGCAA [G25U G67A C72A], the nonsense suppression was ≤ 0.026.
The same measure for CUCUCGGUAACCAAGUUGGUUUAAGGCGCAAGACUUUAAUUUAUCACUACGAAAUCUUGAGAUCGGGCGUUCGACUUGCCCCCGGUAGAUUUUUUCCUCGAGCAA [G10A C77U G86U]: ≤ 0.026; for CUCUUGGUAGCCAAGUUGGUUUAAGGCGCAAGACUUUAAUUUAUCACUACGAAAUCCUGAGAUCAGGCGUUCGACUCGCCCCCGGGAGAUUUUUUCCUCGAGCAA [C5U U57C G65A]: ≤ 0.026.
In the case of CUAACGGUAGCCAAGUUGGUUUAAGGCGCAAGACUUUAAUUUAUCACUACGAAAUCUUGAGGUCGGGCGUUCGACUCGCCCCCGGGAGAUUUUUUCCUCGAGCAA [C3A U4A A62G], the nonsense suppression was ≤ 0.026.
Take CUCUCGGUAGCCAAGUUGGUUUAAGGCGCAAGGCUUUAAUUUAUCACUACGAAAUCUUGAGAUCGGGCGUUCGACUCACCCCCGGGAGAUUUUUUCCUCGAGCAA [A33G G78A]: the nonsense suppression was ≤ 0.026.
As to CUCUCGGUAGCCUAGUUGGUUUAAGGCGCAAGGCUUUAAUUUAUCACUACGAAAUCCUGAGAUCAGGCGUUCGACUCGCCCCCGGGAGAUUUUUUCCUCGAGCAA [A13U A33G U57C G65A], the nonsense suppression is ≤ 0.026.
The result for CUCUCGGUAGCCAAGUUAGUUUAAGGCGCAAGACUUUAAUUUAUCACUACGAAAUCUUGAGAUCGGGCGUUCGACUCGCCCCCGGGUGAUUUUUUCCUCGAGCAA [G18A A87U] reads ≤ 0.026; that for CUCUCGGUGGCGAAGUUGGUUUAAGGCGCAAGACUUUAAUUUAUCACUACGAAAUCGCGAGAUCGGACGUUCGACUCGCCCCCGGGAGAUUUUUUCCUCGAGCAA [A9G C12G U57G U58C G67A], ≤ 0.026.
